# Measurements from PubChem BioAssay AID1030 (National Center for Advancing Translational Sciences (NCATS), 2008).
# The whole screen tested about 220,000 compounds, of which about 16,000 (7.3%) were called active. This list was built around the results that the source calls inconclusive (neither active nor inactive); the mix of calls is not that of the screen. The call rests on the fitted dose curve; in most records, active means well fitted inhibition curve with a large enough effect (not every such curve was filed as active); inconclusive means small, poorly fitted or top-dose-only effect, or another doubt; inactive means no such curve, though single readings can be large or run the other way. Potencies of inconclusive entries are left out as doubtful fits.
# Target: Aldehyde dehydrogenase 1A1 (Homo sapiens) (UniProt P00352)
# Experiment: qHTS Assay for Inhibitors of Aldehyde Dehydrogenase 1 (ALDH1A1)
# Conditions: Purified ALDH1A1, NADH fluorescence, propionaldehyde substrate; series mostly up to 75.3 µM
# Potency means the concentration at half of the fitted maximal effect; tags describe the fitted curve by direction and shape.
# Chain of UniProt P00352 (P00352 whole entry, looked up): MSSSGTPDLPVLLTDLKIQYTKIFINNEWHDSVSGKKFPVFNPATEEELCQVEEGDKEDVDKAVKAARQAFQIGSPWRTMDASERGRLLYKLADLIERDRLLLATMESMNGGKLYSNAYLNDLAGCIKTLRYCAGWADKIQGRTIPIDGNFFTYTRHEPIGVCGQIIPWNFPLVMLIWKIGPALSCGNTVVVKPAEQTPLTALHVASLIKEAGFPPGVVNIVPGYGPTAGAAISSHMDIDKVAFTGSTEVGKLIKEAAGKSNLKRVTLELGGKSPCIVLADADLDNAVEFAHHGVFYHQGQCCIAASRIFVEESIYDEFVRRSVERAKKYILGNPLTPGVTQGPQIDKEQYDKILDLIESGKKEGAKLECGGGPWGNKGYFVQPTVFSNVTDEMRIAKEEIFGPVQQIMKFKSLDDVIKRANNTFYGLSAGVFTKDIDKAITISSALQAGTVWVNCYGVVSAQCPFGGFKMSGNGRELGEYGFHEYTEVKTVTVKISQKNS
row,SMILES,Potency
1,CC(=O)Sc1nc(-c2ccccc2)[nH]c1S(=O)(=O)c1ccc(C)cc1,inactive
2,COc1ccc(S(=O)(=O)NCC2CCCN(C(=O)c3cccs3)C2)cc1 (configuration not stated),active: 1.12 µM
3,O=C(NCCc1ccccc1)C1CCN(C(=O)NCc2ccccc2)CC1,inactive
4,COc1ccc(C(=O)Nc2cc(Cl)ccc2Cl)c(OC)n1,"inconclusive [inhibitor, partial curve]"
5,O=C(NC1CCCCC1)C(c1ccc2ncccc2c1)N(Cc1ccccc1)C(=O)c1ccc2c(c1)OCCO2 (configuration not stated),"inconclusive [inhibitor, partial curve]"
6,COc1ccc(-c2n[nH]c(C)c2-c2cnn(-c3ccccc3)c2)c(O)c1,active: 7.94 µM
7,Cc1nc2sc3c(c2c(=O)n1N)CCC3,"inconclusive [inhibitor, single point]"
8,O=[N+]([O-])c1cc(S(=O)(=O)NC2=NCCCCC2)ccc1NCC1CCCCC1,"inconclusive [inhibitor, partial curve]"
9,COc1ccccc1C1CCN(c2ccc(CO)cc2[N+](=O)[O-])CC1,"inconclusive [inhibitor, single point]"
10,Cc1ccc(N/C(C(Cl)=C(Cl)Cl)=C(/Cl)[N+](=O)[O-])c(C)c1,active: 3.55 µM
11,COCCCNC(=O)Cn1nc(-c2ccc(C)cc2)ccc1=O,"inconclusive [inhibitor, single point]"
12,OC1(CN2CCOCC2)C2CN3CCN(C2)CC1(c1ccccc1)C3 (configuration not stated),inactive
13,CCc1cc2c(=O)c(-c3cnn(-c4ccccc4)c3)c(C)oc2cc1OCC(=O)Nc1cccc(C)c1,inactive
14,CC(C)Cn1nc(NC(=O)C2CCCO2)c2cc3ccccc3nc21 (configuration not stated),"inconclusive [inhibitor, single point]"
15,Cc1cccc(-c2c3c(=O)n(C)c(=O)n(C)c3cn2CC2CCCO2)c1 (configuration not stated),active: 20 µM
16,COc1ccc(N=Cc2sc(O)c3ccccc23)cc1,"inconclusive [inhibitor, single point]"
17,CCCCc1sc(-c2c(C#N)c(N)nc3c2CCCCC3)cc1[N+](=O)[O-],"inconclusive [inhibitor, single point]"
18,CC(=O)N1C2(C=CC1(C)C(=O)NCCN1CCOCC1)CCCCC2 (configuration not stated),inactive
19,Cc1csc(C(=O)O)c1NC(=O)c1cccc([N+](=O)[O-])c1,active: 14.1 µM
20,COC(=O)CC1[C@@]2(C)C[C@@]34OC5(C)OC6(CC[C@@]7(C)C(c8ccoc8)OC(=O)C(C(C)=O)C7[C@]6(O5)C(O)[C@@]3(O)C2O)[C@]14C (some centres not stated),inactive
21,CS(=O)(=O)c1ccc(C(=O)OCC(=O)NC(=O)C2CCCCC2)cc1[N+](=O)[O-],inactive
22,O=C(COc1ccc(S(=O)(=O)NC2CCCCC2)cc1)NCCC1=CCCCC1,active: 7.08 µM
23,NC(N)=NC(=O)c1nc(Cl)c(N2CCCCCC2)nc1N,inactive
24,COc1ccc(OCc2nnnn2-c2ccccc2)cc1,"inconclusive [inhibitor, single point]"

row,SMILES,Potency
1,CCN(CC)CC(=O)c1ccc(-c2ccccc2)cc1,"inconclusive [inhibitor, partial curve]"
2,COc1cccc(NC(=S)N(Cc2cccc(Br)c2)CC2CCC(C(=O)O)CC2)c1 (configuration not stated),"inconclusive [inhibitor, single point]"
3,CCOC(=S)SCC(=O)O,"inconclusive [inhibitor, single point]"
4,O=C(CSc1ccsc1[N+](=O)[O-])NC1CCCC1,"inconclusive [inhibitor, single point]"
5,COc1cc(OC)cc(C(=O)NC2CCN(Cc3nnnn3Cc3cccs3)CC2)c1,active: 12.6 µM
6,CCOC(=O)C1=C(C)NC(=O)CC1c1cc2c(cc1[N+](=O)[O-])OCO2 (configuration not stated),"inconclusive [inhibitor, single point]"
7,O=C1CN(/N=C/c2ccc([N+](=O)[O-])o2)C(=O)N1,inactive
8,C=CCn1c(NC(=O)c2ccc(Br)o2)c(C(=O)OCC)sc1=S,active: 3.55 µM
9,COc1ccc(CCNC(=O)CSc2ccc(-c3ccco3)nn2)cc1OC,"inconclusive [inhibitor, single point]"
10,CS(=O)(=O)c1ccc(-c2cc(Br)sc2-c2ccc(F)cc2)cc1,inactive
11,O=C(N/N=C/c1ccc([N+](=O)[O-])s1)C(O)c1ccccc1 (configuration not stated),inactive
12,COc1ccc(NS(=O)(=O)c2ccc(N/N=C(\C)c3ccncc3)c([N+](=O)[O-])c2)cc1,inactive
13,CC(=O)c1c(C)[nH]c(C(=O)OCc2ccccc2F)c1C,"inconclusive [inhibitor, single point]"
14,Cc1cc2nnc(SCC(=O)Nc3cccc(S(=O)(=O)N4CCOCC4)c3)n2c2ccccc12,"inconclusive [inhibitor, single point]"
15,C=CCC(C)(O)c1cccs1 (configuration not stated),inactive
16,O=C(CCn1c(=O)oc2ccccc21)NCCCN1CCN(c2ccc(F)cc2)CC1,inactive
17,Cc1ccc(Oc2nc3ccccc3n3c(C)nnc23)cc1,"inconclusive [inhibitor, partial curve]"
18,O=C1CN=C(Nc2ccccc2Cl)N1c1ccccc1,"inconclusive [inhibitor, full curve, poor fit]"
19,O=C(COC(=O)CCCc1c[nH]c2ccccc12)Nc1ccc2c(c1)OCO2,inactive
20,O=C(/C=C/c1ccco1)N/C(=C\c1ccco1)C(=O)NCCc1nc2ccccc2[nH]1,"inconclusive [inhibitor, single point]"
21,CCOc1ncccc1C(=O)OCc1nnc(-c2ccccc2)o1,inactive
22,CCN(Cc1ccccc1)S(=O)(=O)c1cc(C(=O)O)ccc1OC,"inconclusive [inhibitor, single point]"
23,CCn1c(=O)c(=O)n(CC)c2cc(S(=O)(=O)Nc3cccc(OC)c3)ccc21,active: 12.6 µM
24,CCOc1ccc(NC(=S)N2CCN(c3ccc(N4CCOCC4)nn3)CC2)cc1,"inconclusive [inhibitor, single point]"

row,SMILES,Potency
1,COc1ccccc1CNC(=O)C/C(C)=N/NC(=O)Cc1ccccc1,inactive
2,CCOc1ccc(OCC)c(NC(=O)C2C3C=CC(O3)C2C(=O)NCc2ccco2)c1 (configuration not stated),"inconclusive [inhibitor, single point]"
3,CCOC(=O)c1nn(-c2cccc(C)c2)c2nnc(Cc3ccc(C)cc3)c(=O)n12,"inconclusive [inhibitor, partial curve]"
4,Cn1cc(C(=O)N/N=C/C(Br)=C/c2ccccc2)ccc1=O,"inconclusive [inhibitor, single point]"
5,Cc1cc(=O)n2c3ccccc3n(CC(O)CN3CCN(CCO)CC3)c2c1C#N (configuration not stated),"inconclusive [inhibitor, partial curve]"
6,COc1cccc(-c2cc(C(=O)NCCCn3ccnc3)c3ccccc3n2)c1,inactive
7,O=C(NN1C(=O)C2C(c3ccccc3)C=CC(c3ccccc3)C2C1=O)c1cccc(Br)c1 (configuration not stated),inactive
8,CC(C)c1cc(Nc2cccc(O)c2)cc(C(C)C)c1O,"inconclusive [inhibitor, single point]"
9,Cc1cc(C(=O)CSc2ccc3c(c2)OCCO3)c(C)n1C1CC1,"inconclusive [inhibitor, single point]"
10,COc1ccc(NC(=O)C(C)NS(=O)(=O)c2ccccc2)cc1Cl (configuration not stated),"inconclusive [inhibitor, single point]"
11,Cc1ccc(NC(=O)C2CC(=O)n3ncnc3N2)cc1C (configuration not stated),"inconclusive [inhibitor, single point]"
12,O=[N+]([O-])c1ccc(Sc2nccn2Cc2ccccc2)c([N+](=O)[O-])c1,"inconclusive [inhibitor, single point]"
13,O=c1cnc2cnc(Oc3cccc(Cl)c3)nc2n1CCc1ccccc1,"inconclusive [inhibitor, partial curve]"
14,Cc1oc2ccc(NS(=O)(=O)c3ccc(C(C)(C)C)cc3)cc2c1C(=O)Nc1ccccc1,"inconclusive [inhibitor, single point]"
15,Cc1noc(/C=C/N(C)C)c1S(=O)(=O)N(C)CC(=O)NC1CCCCC1,"inconclusive [inhibitor, partial curve]"
16,COc1ccc(NC(=O)N2CC3(CCN(C(=O)c4ccco4)CC3)C2)cc1,active: 15.8 µM
17,CCOC(=O)N1CCC(N2C(=O)c3ccccc3C2Nc2ccc3c(c2)OCCO3)CC1 (configuration not stated),"inconclusive [inhibitor, full curve]"
18,O=C(O)CCCN1C(=O)/C(=C\c2ccco2)SC1=S,"inconclusive [inhibitor, partial curve]"
19,O=C(NCc1ccccc1)C1CCN(S(=O)(=O)c2ccc(Cl)cc2)CC1,inactive
20,CCc1ccc(OCC(=O)c2c(O)c3ccccc3oc2=O)cc1,"inconclusive [inhibitor, single point]"
21,Cc1cccc(NC(=O)CC2SC(=O)N(c3ccccc3)C2=O)c1 (configuration not stated),active: 10 µM
22,O=C(Cc1coc2cc3c(cc12)CCC3)OCc1cc(=O)n2c(n1)sc1ccccc12,"inconclusive [inhibitor, single point]"
23,COCCNC(=O)c1cc2cc(Br)cc(Br)c2oc1=O,"inconclusive [inhibitor, full curve]"
24,Cc1ccc(/C=C2\SC(=S)N(c3cccnc3)C2=O)cc1,"inconclusive [inhibitor, partial curve]"
